# According to PubChem BioAssay (NCATS):
# This list was built around the results that the source calls inconclusive (neither active nor inactive); the mix of calls is not that of the screen. For some assays here: A potency beside an inconclusive call is a rough fit, not a confirmed value. Active and inactive are the calls of the source. Unless noted, calls come from the whole dose curve; as a rule, active = well fitted curve in the direction sought with a large enough effect; inconclusive = small, poorly fitted or top-dose-only effect, or another doubt; inactive = no such curve, though single readings can be large; an effect the other way counts as inactive or inconclusive.
# Tests used:
# [1] = NFAT Signaling Pathway (AID 444; active = well fitted curve in either direction with a large enough effect, not every such curve was filed as active; inconclusive = small, poorly fitted or top-dose-only effect, or another doubt;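 note: carbachol stimulus at about its EC50 of 1 µM final; % is set by controls: 0 for no effect and ±100 for the full control effect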); conditions: Jurkat NFAT-bla M1, carbachol, beta-lactamase ratio, 5 h; at 17.2 µM (top of the series) unless noted
# How it was run: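 Jurkat cells with NFAT-driven β-lactamase reporter and co-expressed M1 receptor, stimulated with carbachol (final 1 uM, ~EC50), compound titration, 5 h at 37 °C. CCF4 loaded 1 h at RT; 460/530 nm ratio gave %activity and AC50.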
# [2] = biological target: Cytochrome P450 3A4 (Homo sapiens) (UniProt P08684); test: qHTS Assay for Inhibitors and Substrates of Cytochrome P450 3A4 (AID 884); conditions: recombinant CYP3A4, Luciferin-PPXE luminescence; series mostly up to 57.1 µM; note: nearly all actives have a fitted effect of over 50% in size; note: potency is the fitted concentration of half-maximal effect; for activity change, negative = inhibition: % is set by controls: 0 for no effect and ±100 for the full control effect
# UniProt P08684, sequence (P08684 whole entry, looked up): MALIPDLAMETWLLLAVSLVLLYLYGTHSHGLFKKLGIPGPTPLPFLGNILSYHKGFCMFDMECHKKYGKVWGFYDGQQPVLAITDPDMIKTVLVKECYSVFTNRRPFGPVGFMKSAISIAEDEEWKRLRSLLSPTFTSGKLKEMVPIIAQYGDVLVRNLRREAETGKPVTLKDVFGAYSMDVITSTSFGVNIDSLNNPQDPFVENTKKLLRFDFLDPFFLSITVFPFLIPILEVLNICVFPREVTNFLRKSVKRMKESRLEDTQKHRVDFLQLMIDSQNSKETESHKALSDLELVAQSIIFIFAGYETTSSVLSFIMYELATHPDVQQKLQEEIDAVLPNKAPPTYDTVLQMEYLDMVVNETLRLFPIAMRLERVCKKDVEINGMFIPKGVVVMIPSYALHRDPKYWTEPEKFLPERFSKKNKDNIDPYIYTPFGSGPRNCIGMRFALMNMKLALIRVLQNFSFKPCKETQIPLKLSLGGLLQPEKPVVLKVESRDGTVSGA
# How it was run: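 20 nM human CYP3A4 with 25 uM Luciferin-PPXE (at KM) in 200 mM KPO4, preincubated 10 min with compound; NADPH regeneration started a 60 min RT reaction. Luciferin detected by luminescence, normalized to 57 uM ketoconazole as full inhibition.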
# [3] = biological target: Cytochrome P450 2D6 (Homo sapiens) (UniProt P10635); test: qHTS Assay for Inhibitors and Substrates of Cytochrome P450 2D6 (AID 891); conditions: recombinant CYP2D6, luciferin-ME EGE luminescence; activity change, negative = inhibition: at 57.1 µM (top of the series);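 note: luciferin methyl ether substrate demethylated by CYP2D6 with NADPH regeneration; potency is the fitted concentration of half-maximal effect; nearly all actives have a fitted effect of over 60% in size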
# UniProt P10635, sequence (P10635 whole entry, looked up): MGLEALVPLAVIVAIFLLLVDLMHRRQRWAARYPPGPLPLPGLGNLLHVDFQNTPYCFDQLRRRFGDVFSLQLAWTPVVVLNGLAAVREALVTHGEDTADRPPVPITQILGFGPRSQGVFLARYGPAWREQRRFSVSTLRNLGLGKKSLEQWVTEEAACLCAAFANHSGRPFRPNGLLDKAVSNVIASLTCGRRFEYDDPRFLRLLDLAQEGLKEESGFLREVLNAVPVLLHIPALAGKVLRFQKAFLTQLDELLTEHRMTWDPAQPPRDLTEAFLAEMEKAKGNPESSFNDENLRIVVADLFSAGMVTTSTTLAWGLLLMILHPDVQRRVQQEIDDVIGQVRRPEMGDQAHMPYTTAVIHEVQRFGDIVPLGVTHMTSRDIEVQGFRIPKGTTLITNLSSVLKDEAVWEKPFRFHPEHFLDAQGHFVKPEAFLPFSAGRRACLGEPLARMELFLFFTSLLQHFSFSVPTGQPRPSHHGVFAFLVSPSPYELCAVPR
# How it was run: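 Human CYP2D6 (5 nM) with 30 uM Luciferin-ME EGE (at Km) in 100 mM KPO4, compound preincubated 10 min, then NADPH regeneration system for 60 min at room temperature. Luciferin read by luminescence; normalized to 1.43 uM quinidine.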
# [4] = qHTS Assay for Identification of Small Molecule Agonists for Hypoxia Response Element Signaling Pathway (AID 914; active = well fitted activation curve with a large enough effect in the signal ratio, with a control signal flat, not every such curve was filed as active; inconclusive = small, poorly fitted or top-dose-only effect, or effect the other way, or a change in a side signal; the % refers to the signal ratio; note: potency is the fitted concentration of half-maximal effect; for activation: top concentration of the series differs between compounds; % of control where 0% means no effect); conditions: ME-180 HRE-bla reporter, beta-lactamase ratio, CoCl2, 17 h; activation: hits give high values
# How it was run: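 HRE-bla ME-180 cells, overnight plating in Opti-MEM with 0.5% dialyzed FBS; cpd titration + EC50 CoCl2, 17 h, 37 degrees Celsius; CCF4 2.5 h RT; 460/530 nm ratio; AC50.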
# [5] = biological target: Cytochrome P450 3A4 (Homo sapiens) (UniProt P08684); test: qHTS Assay for Activators of Cytochrome P450 3A4 (AID 885); conditions: recombinant CYP3A4, Luciferin-PPXE luminescence, 60 min; series mostly up to 57.1 µM; note: potency is the fitted concentration of half-maximal effect; nearly all actives have a fitted effect of over 65% in size
# How it was run: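 Quantitative HTS format: compounds preincubated with 20nM human CYP3A4 and Luciferin-PPXE substrate at KM, reaction started by NADPH regeneration, stopped after 60 min, luciferase luminescence read 20 min later.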
# [6] = qHTS Assay for Identification of Small Molecule Antagonists for NFkB Signaling Pathway (AID 895; active = well fitted inhibition curve with a large enough effect in the signal ratio, with a control signal flat, not every such curve was filed as active; inconclusive = small, poorly fitted or top-dose-only effect, or effect the other way, or a change in a side signal; the % refers to the signal ratio; note: % is set by controls: 0 for no effect and ±100 for the full control effect); conditions: NFkB beta-lactamase reporter cells, FRET ratio 460/530, stimulated with 10 pM TNF alpha; activity change, negative = inhibition: at 38.3 µM (top of the series)
# How it was run: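 ME-180 NFkB-bla cells (beta-lactamase under NFkB response element), plated overnight, treated with compound then 10 pM TNF alpha (about EC50) for 5 hrs at 37 C. LiveBLAzer FRET read at 460/530 nm emission, 405 nm excitation.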
# [7] = biological target: Muscarinic acetylcholine receptor M1 (Rattus norvegicus) (UniProt P08482); test: qHTS Assay for Antagonists of Acetylcholine Muscarinic M1 Receptor: Kinetic Measurement of Intracellular Calcium Response (AID 943); conditions: M1-expressing cells, kinetic intracellular calcium fluorescence; series mostly up to 35.3 µM; note: potency is the fitted concentration of half-maximal effect; nearly all actives have a fitted effect of over 75% in size
# UniProt P08482, sequence (P08482 whole entry, looked up): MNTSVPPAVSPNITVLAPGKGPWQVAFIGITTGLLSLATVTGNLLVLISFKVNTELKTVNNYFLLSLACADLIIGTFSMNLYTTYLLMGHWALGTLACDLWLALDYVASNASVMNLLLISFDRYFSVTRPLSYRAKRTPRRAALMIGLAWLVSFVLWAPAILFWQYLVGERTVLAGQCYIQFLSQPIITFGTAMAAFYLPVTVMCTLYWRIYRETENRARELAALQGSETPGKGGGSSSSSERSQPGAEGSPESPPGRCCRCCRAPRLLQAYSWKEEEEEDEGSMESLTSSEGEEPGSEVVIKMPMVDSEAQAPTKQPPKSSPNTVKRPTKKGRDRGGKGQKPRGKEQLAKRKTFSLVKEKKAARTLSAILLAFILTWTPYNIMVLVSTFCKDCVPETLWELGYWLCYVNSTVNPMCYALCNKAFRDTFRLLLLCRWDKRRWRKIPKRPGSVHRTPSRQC
# How it was run: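 Rat M1-CHO cells, 2000/well, overnight → Fluo-4 no-wash dye with probenecid, 1 h 37C → compound 10 min, room temp → basal read 6 s → carbachol EC80 (100 nM) → 4 min kinetic read; peak/basal.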
# [8] = biological target: Cytochrome P450 2C9 (Homo sapiens) (UniProt P11712); test: qHTS Assay for Inhibitors and Substrates of Cytochrome P450 2C9 (AID 883); conditions: recombinant CYP2C9, luciferin-H luminescence, 60 min; activity change, negative = inhibition: at 57.1 µM (top of the series); note: potency is the fitted concentration of half-maximal effect; nearly all actives have a fitted effect of over 60% in size
# UniProt P11712, sequence (P11712 whole entry, looked up): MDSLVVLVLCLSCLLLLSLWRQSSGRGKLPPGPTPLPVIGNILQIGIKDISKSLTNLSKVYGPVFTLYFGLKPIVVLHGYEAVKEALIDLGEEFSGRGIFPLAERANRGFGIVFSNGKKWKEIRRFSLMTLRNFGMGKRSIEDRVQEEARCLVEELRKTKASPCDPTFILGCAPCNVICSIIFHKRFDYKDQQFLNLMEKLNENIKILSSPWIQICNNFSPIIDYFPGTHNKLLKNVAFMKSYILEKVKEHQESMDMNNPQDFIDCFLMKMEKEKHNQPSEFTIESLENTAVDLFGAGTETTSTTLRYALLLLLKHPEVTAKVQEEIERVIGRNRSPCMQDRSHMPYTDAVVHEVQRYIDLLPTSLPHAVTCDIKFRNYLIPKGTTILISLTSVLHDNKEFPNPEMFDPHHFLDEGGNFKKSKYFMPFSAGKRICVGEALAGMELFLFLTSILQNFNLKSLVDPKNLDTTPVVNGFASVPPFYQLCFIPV
# How it was run: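 Human CYP2C9 (10nM) with Luciferin-H at 100uM (its KM) in 25mM KPO4; compound preincubated 10 min at 37C, then NADPH regeneration for 60 min at 37C. Luciferin read by luminescence after detection reagent; normalized to 57uM sulphaphenazole as full inhibition.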
# Tags give direction and shape of the fitted curve or compound fluorescence and quenching.
compound,measurement,setting,value
Cn1cccc1C(=O)N1CCC[C@@]2(CCN(Cc3ccccc3)C2)C1,"activity change, negative = inhibition",[1],inactive: -14.1% [at 7.69 µM]
same,Potency,[2],"inconclusive: 5.01 µM [inhibitor, partial curve]"
CC(C)(C)CC(C)(C)c1ccc(O)c(C[N+](C)(C)[O-])c1,"activity change, negative = inhibition",[1],inactive: 17.3% [at 7.69 µM]
same,Potency,[2],"inconclusive: 5.01 µM [inhibitor, partial curve]"
same,Potency,[3],"inconclusive: 7.94 µM [inhibitor, single point]"
same,Potency,[4],"inconclusive: 5.01 µM [inhibitor, single point]"
COC(=O)N1CCC2(CC1)CN(c1ccccc1)C2,"activity change, negative = inhibition",[1],inconclusive: 33.5% [activator] [at 7.69 µM]
same,Potency,[5],"inconclusive: 20 µM [activator, single point]"
O=c1[nH]c(SCc2ccccc2[N+](=O)[O-])nc2nc[nH]c12,"activity change, negative = inhibition",[1],inactive: 13.2% [at 7.69 µM]
same,Potency,[2],"inconclusive: 3.98 µM [inhibitor, partial curve]"
Cc1c2cccc(Sc3ccccc3)c2c2c3c(cccc13)[S+](c1ccccc1)C2 (stereo not given),"activity change, negative = inhibition",[1],inconclusive: -69.7% [inhibitor] [at 7.69 µM]
same,Potency,[2],"inconclusive: 3.16 µM [inhibitor, single point]"
same,Potency,[3],"inconclusive: 5.01 µM [inhibitor, partial curve]"
same,activation,[4],inactive: -19.6%
O=c1[nH]c(SCc2c(Cl)c(Cl)c(Cl)c(Cl)c2Cl)nc(=S)[nH]1,"activity change, negative = inhibition",[1],inactive: 13.5% [at 7.69 µM]
same,Potency,[2],active: 3.16 µM
same,Potency,[3],"inconclusive: 3.98 µM [inhibitor, partial curve]"
C(/C=C\c1ccccc1)=Nc1ccc2c(c1)Cc1ccccc1-2,"activity change, negative = inhibition",[1],inactive: -3.9% [at 7.69 µM]
same,Potency,[2],"inconclusive: 3.98 µM [inhibitor, partial curve]"
CN(C)c1ccc(/C=N\NC(=O)c2cnc3ccccc3c2)cc1,"activity change, negative = inhibition",[1],inactive: 1.4% [at 7.69 µM]
same,Potency,[2],"inconclusive: 3.98 µM [inhibitor, partial curve]"
same,activation,[4],inconclusive: 33%
Cc1ccc2nc(N/N=C\c3cccc(C)n3)cc(C)c2c1,"activity change, negative = inhibition",[1],inconclusive: -37.9% [inhibitor] [at 7.69 µM]
same,Potency,[2],"inconclusive: 3.16 µM [inhibitor, partial curve]"
COC(=O)[C@](C)(N)Cc1ccc(O)cc1,"activity change, negative = inhibition",[1],inconclusive: 21.5% [inhibitor] [at 38 µM]
same,Potency,[2],inactive
same,Potency,[5],"inconclusive: 2.51 µM [activator, partial curve]"
same,"activity change, negative = inhibition",[6],inconclusive: 7.96%
same,Potency,[7],"inconclusive: 0.126 µM [inhibitor, full curve, poor fit]"
N=C(N)SCc1nc(-c2ccc(Cl)cc2)no1,"activity change, negative = inhibition",[1],inconclusive: -70.8% [inhibitor] [at 7.69 µM]
same,Potency,[2],"inconclusive: 5.01 µM [inhibitor, partial curve]"
same,Potency,[3],"inconclusive: 3.16 µM [inhibitor, partial curve]"
COc1ccccc1-c1cncnc1NCCc1cnc[nH]1,"activity change, negative = inhibition",[1],inactive: 3.21% [at 7.69 µM]
same,Potency,[8],"inconclusive: 0.501 µM [inhibitor, partial curve]"
same,activation,[4],inconclusive: -34.4%
